Assay results as given in a compilation of properties of binary mixtures (doi:10.1021/ie0605377).
Some of these densities may be calculated back from excess volumes.

Test: xn = mol fraction of the nth substance listed
Details: 101 kPa

SMILES | mass density (303.02 K, x2 = 0) [kg/m3] | mass density (303.02 K, x2 = 0.1024) [kg/m3] | mass density (303.02 K, x2 = 0.2554) [kg/m3] | mass density (303.02 K, x2 = 0.4878) [kg/m3] | mass density (303.02 K, x2 = 0.5514) [kg/m3] | mass density (303.02 K, x2 = 0.7615) [kg/m3] | mass density (303.02 K, x2 = 0.9441) [kg/m3] | mass density (322.41 K, x2 = 0) [kg/m3] | mass density (322.41 K, x2 = 0.2243) [kg/m3] | mass density (322.41 K, x2 = 0.4481) [kg/m3] | mass density (322.41 K, x2 = 0.5104) [kg/m3] | mass density (322.41 K, x2 = 0.585) [kg/m3] | mass density (322.41 K, x2 = 0.8367) [kg/m3] | mass density (303.02 K, x1 = 1) [kg/m3] | mass density (322.41 K, x1 = 1) [kg/m3]
CC[n+]1ccn(C)c1.O=S(=O)([N-]S(=O)(=O)C(F)(F)F)C(F)(F)F + CC#N | 1513.7 | 1498.2 | 1467.9 | 1397.3 | 1369.2 | 1224.6 | 939.1 | 1494.2 | 1456.5 | 1394.2 | 1369.7 | 1333.9 | 1116.5 |  | 
CC#N + CC[n+]1ccn(C)c1.O=S(=O)([N-]S(=O)(=O)C(F)(F)F)C(F)(F)F |  |  |  |  |  |  |  |  |  |  |  |  |  | 771.3 | 750
